# Test results taken from paper PMC4336329 (PLoS ONE, 2015).
# The whole screen tested about 310,000 compounds, of which about 14,000 (4.5%) showed an effect of 50% or more. Effects have a minus sign here. Some of the results follow.
# Target: human ether-à-go-go-related gene (hERG) potassium channel (human, UniProt Q12809)
# Assay: primary screen, population patch clamp on CHO cells stably expressing hERG
# 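Also: peak tail current of the secondary pulse compared with the same well before compound.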
# Chain of human ether-à-go-go-related gene (hERG) potassium channel (Q12809 whole entry, looked up): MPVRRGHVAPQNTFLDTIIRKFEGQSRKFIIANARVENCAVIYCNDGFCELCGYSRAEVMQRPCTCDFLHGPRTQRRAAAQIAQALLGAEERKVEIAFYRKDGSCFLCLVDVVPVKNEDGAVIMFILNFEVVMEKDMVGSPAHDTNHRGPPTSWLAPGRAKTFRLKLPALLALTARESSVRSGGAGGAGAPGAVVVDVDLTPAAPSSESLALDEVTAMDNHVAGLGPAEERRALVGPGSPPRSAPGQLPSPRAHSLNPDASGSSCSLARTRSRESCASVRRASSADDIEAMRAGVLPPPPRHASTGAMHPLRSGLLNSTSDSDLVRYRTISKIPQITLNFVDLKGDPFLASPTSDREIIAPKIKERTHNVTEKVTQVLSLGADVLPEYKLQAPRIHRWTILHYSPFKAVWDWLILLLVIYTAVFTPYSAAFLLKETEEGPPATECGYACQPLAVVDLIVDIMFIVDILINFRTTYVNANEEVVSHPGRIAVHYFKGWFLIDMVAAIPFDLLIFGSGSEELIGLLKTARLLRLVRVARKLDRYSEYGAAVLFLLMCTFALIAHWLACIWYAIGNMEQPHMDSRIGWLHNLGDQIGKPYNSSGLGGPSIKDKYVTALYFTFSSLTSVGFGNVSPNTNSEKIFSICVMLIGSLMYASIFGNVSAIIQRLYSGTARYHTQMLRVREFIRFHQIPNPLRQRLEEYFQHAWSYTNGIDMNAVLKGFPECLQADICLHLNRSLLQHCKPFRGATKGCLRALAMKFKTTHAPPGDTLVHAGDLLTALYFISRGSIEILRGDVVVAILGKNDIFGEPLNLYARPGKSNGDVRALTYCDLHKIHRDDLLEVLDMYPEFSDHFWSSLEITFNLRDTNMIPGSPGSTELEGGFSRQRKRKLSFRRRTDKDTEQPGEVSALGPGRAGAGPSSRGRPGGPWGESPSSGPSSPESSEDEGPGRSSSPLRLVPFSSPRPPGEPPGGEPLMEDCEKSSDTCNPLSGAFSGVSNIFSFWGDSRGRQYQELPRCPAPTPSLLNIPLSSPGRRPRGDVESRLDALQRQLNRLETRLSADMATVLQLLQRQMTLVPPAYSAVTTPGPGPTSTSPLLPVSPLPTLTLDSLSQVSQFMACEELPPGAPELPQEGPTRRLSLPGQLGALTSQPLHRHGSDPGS
row,Compound,"hERG current change (%, negative = inhibition) at 10uM [%]"
1,COc1ccc(OC(=O)CCN2C(=O)C3C4C=CC(C4)C3C2=O)cc1 (centres unmarked),-7.8
2,CCOC(=O)N/N=C/c1c(F)cccc1F,11.2
3,c1cc2c3c(cccc3c1)C(N1CCCCC1)=N2,-66.2
4,CCOc1ccc(C(C)=O)cc1COC(=O)CN1C(=O)NC2(CCCC2)C1=O,-1.97
5,COC(=O)c1cc2sccc2n1CC(=O)N(C)c1ccccc1,15.5
6,Cc1cc2ccccc2n2c(SCC(=O)N3CCc4ccccc4C3)nnc12,-31.4
7,Cc1cc(C(=O)NC(Cc2c[nH]c3ccccc23)C(=O)O)c(C)o1 (centres unmarked),21.2
8,CCS(CC)=NS(=O)(=O)c1ccc(NC(C)=O)cc1,-0.197
9,COc1cc(OC)nc(NC(=O)CSc2nnc(-c3ccccc3)n2C2CCCCC2)n1,-4.3
10,CC(C)(CSc1ccccn1)NS(=O)(=O)c1ccccc1,-10.3
11,Cn1cc(C(=O)C(=O)N2CCCC2)c2ccccc21,12.7
12,CCN(CC)CCNC(=O)c1ccc(NC(=O)COc2ccccc2F)cc1.Cl,-18.9
13,CCOC(=O)C1(Cc2ccccc2C(F)(F)F)CCN(CC(O)CO)CC1 (centres unmarked),-3.71
14,COc1cccc(-c2nn(-c3ccccc3)cc2/C=C\C(=O)c2cccs2)c1,15.6
15,CC(=O)Nc1cccc(NC(=O)CSc2ccc(-c3ccco3)nn2)c1,0.763
16,CSC(=NC1CCCCC1)NS(=O)(=O)c1ccccc1,-8.98
17,CCc1nn2c(=O)cc(COc3ccc(/C=C4\C(=N)N5N=C(C)SC5=NC4=O)cc3)nc2s1,8.16
18,CCOC(=O)c1cn(-c2nc(-c3ccc(Cl)c(Cl)c3)cs2)c2c(F)c(N3CCOCC3)c(F)cc2c1=O,20.5
19,Cc1ccccc1NC(=O)NC1CCCCC1C (centres unmarked),3.94
20,COc1ccc(CCC(=O)N2CCCC(Nc3ccc(OC)cc3)C2)cc1 (centres unmarked),-6.96
21,CCn1c(SCC(=O)N/N=C/c2cccs2)nc2ccccc21,-32
22,Oc1c(Br)cc(Br)cc1C=Nc1cccc2ncccc12,0.658

row,Compound,"hERG current change (%, negative = inhibition) at 10uM [%]"
1,COc1ccc(NC(=O)c2oc3ccccc3c2NC(=O)c2ccco2)c(OC)c1,6.32
2,CCOc1ccc(C(=O)Nc2cc(C)c3c(=O)oc4ccccc4c3n2)cc1,11.5
3,COc1ccc(NC(=O)CS(=O)CC(=O)NC2CCCc3ccccc32)cc1 (centres unmarked),-10.3
4,CN(CC(O)COC(c1ccccc1)c1ccccc1)C1CCCCC1 (centres unmarked),-68.4
5,Cc1ccc(CN2CCN(Cc3cnc(C)[nH]3)CC2CCO)cc1 (centres unmarked),10.8
6,C=CCn1c(O)c(C(C)=Nc2ccc(N(C)C)cc2)c(=O)[nH]c1=O,-0.69
7,Cn1c(NCc2c[nH]c3ccccc23)nc2ccccc21,-28.7
8,c1ccc(-c2nc(NCCCn3ccnc3)c3ccccc3n2)cc1,-59.3
9,CCOC(=O)c1cccc(NC(=O)C2(S(=O)(=O)c3ccc(Cl)cc3)CC2)c1,-27.1
10,O=[N+]([O-])c1cccc(S(=O)(=O)NCCc2cccs2)c1,-36.4
11,C/C(=N\OCC(=O)Nn1c(C)nc2ccccc2c1=O)c1cccs1,-5.66
12,CC1CCN(c2ccc(-c3ccc(NC(=O)c4ccco4)cc3)nn2)CC1,19
13,COc1ccccc1OCC(=O)Nc1ccc(S(=O)(=O)N2CCN(C)CC2)cc1,-15
14,C[C@@H]1CC=C[C@H]2[C@H]1C(=O)N(Cc1ccccc1)[C@H]2c1cccc([N+](=O)[O-])c1,-8.38
15,COc1ccc(CC(=O)OCC(=O)NCc2ccco2)cc1OC,16.6
16,O=c1[nH]c(C2CCCN(S(=O)(=O)c3ccccc3Cl)C2)nc2c1nnn2Cc1ccc2c(c1)OCCO2 (centres unmarked),7
17,Cc1ccc2c(c1)C(C)CC(C)(C)N2C(=O)CN1CCN(C)CC1.O=C(O)C(=O)O (centres unmarked),-23.6
18,Cc1ccc(Sc2cnccc2C#N)cc1,1.09
19,Cc1cc(C)c2c(n1)nn1c(C)c(CCC(=O)NCc3ccco3)c(C)nc21,-12.1
20,CCn1cc(C(=O)c2cccs2)c2ccccc21,-1.99
21,COc1ccc(NC(=S)Nc2ccc3nccnc3c2)cc1,17.2
22,CN1CCN(S(=O)(=O)c2ccc(Oc3ccc(F)c(Cl)c3)nc2)CC1,5.14
